Inconclusive means that the source gave no clear call. Such entries were picked first, then a sample of the others. Potencies of inconclusive entries are left out as doubtful fits. The source made the active and inactive calls. Calls follow the shape of the dose curve; as a rule, active = well fitted inhibition curve with a large enough effect; inconclusive = small, poorly fitted or top-dose-only effect, or another doubt; inactive = no such curve, though single readings can be large or run the other way.
What follows are compounds tested against DNA polymerase eta (Homo sapiens) (UniProt Q9Y253) (assay: qHTS for Inhibitors of Polymerase Eta: Confirmatory Assay for Cherry-picked Compounds (AID 720502)). Conditions: Pol eta primer extension, TAMRA/BHQ fluorescence, 10 min.
Outline: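 Quenched-fluorescence replication assay: 10 nM Pol eta, 50 nM substrate final, 15 min compound preincubation at room temperature, 10 min kinetic reaction read at 525/598 nm.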
Potency is read from the fitted curve at half-maximal effect; tags tell the direction and shape of the fitted curve.

UniProt Q9Y253, sequence (Q9Y253 whole entry, looked up): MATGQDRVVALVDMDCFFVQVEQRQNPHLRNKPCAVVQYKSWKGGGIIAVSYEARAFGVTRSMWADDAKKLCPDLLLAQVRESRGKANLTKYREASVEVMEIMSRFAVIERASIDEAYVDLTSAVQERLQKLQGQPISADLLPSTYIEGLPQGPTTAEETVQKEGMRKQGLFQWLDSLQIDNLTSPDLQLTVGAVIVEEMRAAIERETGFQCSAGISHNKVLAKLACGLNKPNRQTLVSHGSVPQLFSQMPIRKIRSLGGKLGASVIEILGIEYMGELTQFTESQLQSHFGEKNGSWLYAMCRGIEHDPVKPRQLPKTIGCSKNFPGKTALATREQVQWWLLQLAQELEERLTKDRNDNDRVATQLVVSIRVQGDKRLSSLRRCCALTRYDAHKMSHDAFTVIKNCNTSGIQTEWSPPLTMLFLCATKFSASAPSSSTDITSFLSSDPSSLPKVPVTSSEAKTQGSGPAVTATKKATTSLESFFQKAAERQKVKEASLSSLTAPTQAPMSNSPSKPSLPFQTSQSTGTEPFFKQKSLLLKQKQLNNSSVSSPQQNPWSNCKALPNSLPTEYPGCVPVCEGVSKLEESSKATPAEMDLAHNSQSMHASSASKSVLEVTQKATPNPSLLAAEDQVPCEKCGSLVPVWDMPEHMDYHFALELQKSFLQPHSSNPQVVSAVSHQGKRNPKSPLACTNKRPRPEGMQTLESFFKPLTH

**Q.** Which Potency does the source give for O=C(O)/C=C/C(=O)Nc1ccc(C2(c3ccc(NC(=O)/C=C/C(=O)O)cc3)c3ccccc3-c3ccccc32)cc1 here?
**A.** inconclusive [inhibitor, single point]

**Q.** For CNC(=S)N/N=C/c1ccc(-c2ccc(C(=O)O)cc2)o1, which Potency is on record?
**A.** active: 33.8 µM

**Q.** How did the Potency turn out when C=CCN(CC=C)S(=O)(=O)c1ncn[nH]1 was run?
**A.** inconclusive [inhibitor, single point]

**Q.** C=CC(=O)N1C/C(=C/c2ccc(F)cc2)C(=O)/C(=C\c2ccc(F)cc2)C1 was tested. Which Potency did it give?
**A.** active: 75.7 µM

**Q.** Nc1ccc(Br)c2cccnc12 was tested. Which Potency did it give?
**A.** inconclusive [inhibitor, single point]

**Q.** For Cc1cc(NC(=O)c2cc([N+](=O)[O-])cc([N+](=O)[O-])c2C)no1, which Potency is on record?
**A.** inconclusive [inhibitor, single point]

**Q.** For COc1ccccc1/C=C1\S/C(=N/NC(=O)c2cccc(Br)c2)NC1=O, which Potency is on record?
**A.** inconclusive [inhibitor, single point]

**Q.** Which Potency does the source give for O=C(O)CCN1CC2([N+](=O)[O-])C=CC(=O)C([N+](=O)[O-])(C1)C2CC(=O)c1ccccc1 (stereo not given) here?
**A.** active: 30.1 µM

**Q.** For O=C(/C=C/c1ccco1)NC(=S)Nc1ccc(C(=O)O)cc1, which Potency is on record?
**A.** active: 5.36 µM

**Q.** Which Potency does the source give for Cc1oc(-c2ccc(Cl)cc2)cc1-c1nn2c(-c3ccoc3C)nnc2s1 here?
**A.** active: 75.7 µM

**Q.** How did the Potency turn out when CCNC(=O)COC(=O)c1cc(-c2ccco2)nc2ccccc12 was run?
**A.** active: 37.9 µM

**Q.** How did the Potency turn out when O=C(N/N=C/c1ccncc1)c1cc([N+](=O)[O-])cc([N+](=O)[O-])c1O was run?
**A.** inconclusive [inhibitor, single point]

**Q.** How did the Potency turn out when c1coc(-c2nc3ccccc3nc2-c2ccco2)c1 was run?
**A.** inconclusive [inhibitor, single point]

**Q.** How did the Potency turn out when COc1cccc(-n2c(SCc3cc(=O)oc4cc(O)c(O)cc34)nc3ccccc3c2=O)c1 was run?
**A.** active: 12 µM

**Q.** With C=C1C(=O)OC2C1CCC(C)C1C=CC(=O)C12C (stereo not given) as the compound, how does the Potency read?
**A.** inconclusive [inhibitor, single point]

**Q.** How did the Potency turn out when CSCC[C@H](NS(=O)(=O)c1ccc(C(C)=O)cc1)c1nnc2ccccn12 was run?
**A.** active: 67.5 µM

**Q.** Which Potency does the source give for COC(=O)c1c(NC(=O)Cc2cccs2)sc2c1CCCC2 here?
**A.** inconclusive [inhibitor, single point]

**Q.** Cn1nnnc1SCC1=C(C(=O)O)N2C(=O)C(NC(=O)Cn3nc(C(F)F)cc3C3CC3)C2SC1 (stereo not given) was tested. Which Potency did it give?
**A.** inconclusive [inhibitor, single point]

**Q.** For Nc1cc(C(=O)OCC(=O)NCc2ccco2)ccc1Cl, which Potency is on record?
**A.** inconclusive [inhibitor, single point]

**Q.** With N#Cc1c(SCC(=O)Nc2nccs2)sc2c(O)cc(=O)[nH]c12 as the compound, how does the Potency read?
**A.** active: 30.1 µM

**Q.** How did the Potency turn out when Cc1ccn2cc(CC(=O)O)nc2c1 was run?
**A.** active: 67.5 µM

**Q.** For COC(=O)C1C2C=CC3(CN(c4cccc(C)c4)C(=O)C13)O2 (stereo not given), which Potency is on record?
**A.** inconclusive [inhibitor, single point]

**Q.** CSc1ccc(C2C(C#N)=C(N)Oc3c2ccc(=O)c2c(C)oc(C)c32)cc1 (stereo not given) was tested. Which Potency did it give?
**A.** inconclusive [inhibitor, single point]

**Q.** Which Potency does the source give for Cc1cc(/C=N/NC(=O)C(O)(c2ccccc2)c2ccccc2)c(C)n1-c1cccc(C(=O)O)c1 here?
**A.** active: 15.1 µM

**Q.** For O=C(c1ccc2c(c1)N(Cc1cccc(F)c1)C(=O)c1ccccc1S2)N1CCC2(CC1)OCCO2, which Potency is on record?
**A.** inconclusive [inhibitor, single point]

**Q.** Which Potency does the source give for N=C1/C(=C/c2ccc(OCc3ccccc3F)cc2)C(=O)N=C2SC(CC(=O)N3CCOCC3)=NN12 here?
**A.** inconclusive [inhibitor, single point]

**Q.** Which Potency does the source give for COc1ccc2[nH]c(=O)c(-c3noc(-c4ccccc4)n3)cc2c1 here?
**A.** active: 67.5 µM

**Q.** How did the Potency turn out when COc1ccc(-n2nc(C(=O)NCC(=O)Nc3ccccn3)c3ccccc3c2=O)cc1Cl was run?
**A.** inconclusive [inhibitor, partial curve]

**Q.** Cc1ccc(-c2ccc(CCC(=O)O)n2Cc2ccco2)cc1 was tested. Which Potency did it give?
**A.** inconclusive [inhibitor, single point]

**Q.** How did the Potency turn out when O=C(CSc1nc2c(cnn2-c2ccc(F)cc2)c(=O)[nH]1)Nc1ccc(Br)cc1 was run?
**A.** inconclusive [inhibitor, single point]

**Q.** With O=C1/C(=C\c2ccco2)SC(=S)N1C1CCS(=O)(=O)C1 (stereo not given) as the compound, how does the Potency read?
**A.** inconclusive [inhibitor, single point]

**Q.** For CC(C)NS(=O)(=O)c1ccc2[nH]c3nc(SCC(=O)Nc4ccc(F)c(F)c4)nnc3c2c1, which Potency is on record?
**A.** inconclusive [inhibitor, single point]

**Q.** With O=C(Nc1sc2c(c1C(=O)O)CCC2)C(=O)N1CCOCC1 as the compound, how does the Potency read?
**A.** inconclusive [inhibitor, single point]

**Q.** How did the Potency turn out when COc1ccc(N2Cc3cccc(C(=O)Nc4ccc(Cl)cc4)c3C2=O)cc1 was run?
**A.** inconclusive [inhibitor, single point]

**Q.** How did the Potency turn out when O=C(N/N=C/C=C\c1ccco1)c1cccnc1 was run?
**A.** inconclusive [inhibitor, single point]

**Q.** How did the Potency turn out when COc1ccc(C(=O)CSc2cc(C)[nH]c(=O)n2)cc1 was run?
**A.** inconclusive [inhibitor, single point]

**Q.** With O=C(N/N=C1/C(=O)c2cccc3cccc1c23)c1ccc(Cl)cc1 as the compound, how does the Potency read?
**A.** inconclusive [inhibitor, single point]

**Q.** With C=CCn1c(SCC(=O)Nc2ccc(-c3nc4ccc(C)cc4s3)cc2)nnc1-c1ccccc1 as the compound, how does the Potency read?
**A.** inconclusive [inhibitor, single point]

**Q.** Which Potency does the source give for CC(=O)Nc1nnc(SCc2cc(=O)c3cc(C)ccc3[nH]2)s1 here?
**A.** inconclusive [inhibitor, partial curve, poor fit]

**Q.** For N#C/C(=C/c1ccc(-c2ccc(C(=O)O)c(Cl)c2)o1)C(=O)NCC1CCCO1 (stereo not given), which Potency is on record?
**A.** inconclusive [inhibitor, single point]

— PubChem BioAssay (NCATS)
